Measured values from PubChem BioAssay (Tox21).
The inconclusive results got no clear call from the source; some entries with a clear call stand among them for comparison. For some assays here: Where the call is inconclusive, the potency comes from a doubtful curve fit. Active and inactive are the calls of the source. Unless noted, calls follow the shape of the dose curve; as a rule, active = well fitted curve in the direction sought with a large enough effect in the repeat runs; inconclusive = weak or mixed curves; inactive = no such curve, though single readings can be large; an effect the other way counts as inactive or inconclusive.

What was measured:
[1] = qHTS assay to identify small molecule antagonists of the retinoid acid receptor (RAR) signaling pathway - cell viability counter screen (AID 1159551); conditions: C3RL4 cells viability, ATP luminescence (CellTiter-Glo), 6 h; series mostly up to 92.4 µM; also: potency is read from the fitted curve at half-maximal effect; nearly all actives have a fitted effect of over 35% in size
Outline: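 Cells (C3RL4) are plated, incubated overnight, dosed with compound in DMSO, then given retinol at 1 uM final. After 6 h at 37 C, CellTiter-Glo is added and luminescence read following 30 min at room temperature.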

[2] = qHTS assay to identify small molecule agonists of the retinoic acid receptor (RAR) signaling pathway (AID 1159553); conditions: C3RL4 RARE luciferase reporter, agonist, 6 h; activation: at 73.3 µM (top of the series) unless noted; also: potency is read from the fitted curve at half-maximal effect
Outline: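 Seed C3RL4 reporter cells at 1,000 per well and incubate overnight at 37 C. Add compounds in DMSO, incubate 6 hr. Add luciferase reagent, wait 30 min at room temperature, read luminescence.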

[3] = qHTS assay to identify small molecule antagonists of the estrogen related receptor (ERR) signaling pathway from Tox21 library - cell viability counter screen (AID 1224834); conditions: ERR reporter cells viability, CellTiter-Fluor, 17.5 h; series mostly up to 92.4 µM; also: potency is read from the fitted curve at half-maximal effect; nearly all actives have a fitted effect of over 30% in size
Outline: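 ERR cells, 2,000/well; 6 h settle at 37 C/5% CO2; pin-tool compound transfer in DMSO; 17.5 h at 37 C; CellTiter-Fluor, 30 min; fluorescence intensity.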

[4] = qHTS assay to identify small molecule antagonists of the retinoic acid receptor (RAR) signaling pathway (AID 1159552; also: potency is read from the fitted curve at half-maximal effect; nearly all actives have a fitted effect of over 50% in size); conditions: C3RL4 RARE luciferase reporter, retinol-stimulated, 6 h; series mostly up to 92.4 µM
Outline: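 Test chemicals and DMSO controls were pin-transferred onto C3RL4 cells a day after seeding; retinol (1 uM final) followed at once. Luminescent reporter output was quantified after 6 hr of co-incubation and 30 min with detection reagent.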

[5] = qHTS assay to identify small molecule antagonists of the constitutive androstane receptor (CAR) signaling pathway - cell viability counter screen (AID 1224837); conditions: HepG2-CYP2B6-hCAR viability, CellTiter-Fluor, 23 h, co-treated with 50 nM CITCO; series mostly up to 92.4 µM; also: potency is read from the fitted curve at half-maximal effect; nearly all actives have a fitted effect of over 45% in size
Outline: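 Viability was measured with CellTiter-Fluor in a HepG2 line carrying stably transfected hCAR and a CYP2B6-2.2kb construct. Cells were exposed for 23 hr at 37 C to 15 compound concentrations with 50 nM CITCO as agonist.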

[6] = molecular target: Nuclear receptor subfamily 1 group I member 3 (Homo sapiens) (UniProt Q14994); test: qHTS assay to identify small molecule agonists of the constitutive androstane receptor (CAR) signaling pathway (AID 1224839); conditions: HepG2 hCAR CYP2B6-luciferase, agonist mode, 24 h; series mostly up to 92.4 µM; also: potency is read from the fitted curve at half-maximal effect; nearly all actives have a fitted effect of over 15% in size
Outline: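 Compounds tested at 15 concentrations on HepG2 cells stably harbouring hCAR and CYP2B6-2.2kb reporter constructs, co-treated with PK11195 (0.75 uM final), 24 h at 37 C; luminescent reporter signal quantified.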

[7] = qHTS assay to identify small molecule antagonists of the estrogen related receptor signaling pathway with the pleiotropic PPARgamma coactivator (PGC) from Tox21 10K library - cell viability counter screen (AID 1224840; active = well fitted cell-killing curve with a large enough effect in the repeat runs, not every such curve was filed as active; inconclusive = weak or mixed curves, or effect the other way; inactive = no such curve, though single readings can be large or run the other way; also: potency is read from the fitted curve at half-maximal effect; nearly all actives have a fitted effect of over 40% in size); conditions: PGC/ERR reporter cells viability, CellTiter-Fluor, 17.5 h; series mostly up to 92.4 µM
Outline: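 Multiplexed viability counter screen in the PGC/ERR cell line: cells treated with DMSO-dissolved compounds for 17.5 hours at 37 C, then viability measured as CellTiter-Fluor fluorescence.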

[8] = qHTS assay to identify small molecule antagonists of the estrogen related receptor signaling pathway with the pleiotropic PPARgamma coactivator (PGC) from Tox21 10K library (AID 1224841; call rule not given here; also: potency is read from the fitted curve at half-maximal effect; actives are mostly falling curves and most rising ones were filed inactive; nearly all actives have a fitted effect of over 50% in size); conditions: PGC/ERR reporter cell line, ONE-Glo luciferase, 18 h; series mostly up to 92.4 µM
Outline: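 Steps: plate 2,000 PGC/ERR cells per well; incubate 6 h at 37 C with 5% CO2; transfer compounds from DMSO stocks by pin tool; incubate 18 h at 37 C; add One-Glo; measure luminescence 30 min later.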

[9] = qHTS assay to identify small molecule agonists of the hypoxia (HIF-1) signaling pathway - cell viability counter screen (AID 1224844; calls by dose curve; also: nearly all actives have a fitted effect of over 50% in size; also: potency is read from the fitted curve at half-maximal effect); conditions: HRE-bla ME-180 viability, CellTiter-Glo luminescence, 17 h; series mostly up to 76.8 µM
Outline: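 Cytotoxicity was measured in parallel with the HRE-driven beta-lactamase readout: after 17 hrs of compound exposure at 37C, HRE-bla ME-180 cells received CellTiter-Glo and luminescence was recorded 30 min later.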

[10] = molecular target: Luciferin 4-monooxygenase (Photinus pyralis) (UniProt P08659); test: qHTS assay to identify small molecule inhibitors of firefly luciferase (AID 1224835); also: potency is read from the fitted curve at half-maximal effect; nearly all actives have a fitted effect of over 25% in size; conditions: purified P. pyralis luciferase, luminescence inhibition; series mostly up to 115 µM
Outline: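 Quantitative HTS format; KM concentrations of both substrates. Purified P. pyralis FLuc activity quantified from luminescence images.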

[11] = molecular target: Thyrotropin receptor (Homo sapiens) (UniProt P16473); test: qHTS assay to identify small molecule agonists of the thyroid stimulating hormone receptor (TSHR) signaling pathway (AID 1224843; calls by dose curve; also: % is scaled to controls: 0 for no effect and ±100 for the full control effect; nearly all actives have a fitted effect of over 45% in size); conditions: TSHR-HEK293 cells, cAMP HTRF, agonist mode, 30 min; activation: at 92.4 µM (top of the series) unless noted
Outline: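 Using 15 concentrations per compound in triplicate, cAMP production was monitored in TSHR-HEK293 cells after 30 min compound incubation at RT; HTRF reagents followed, with fluorescence intensity recorded after 1 h.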
Tags tell the direction and shape of the fitted curve.

UniProt P08659, sequence (P08659 whole entry, looked up): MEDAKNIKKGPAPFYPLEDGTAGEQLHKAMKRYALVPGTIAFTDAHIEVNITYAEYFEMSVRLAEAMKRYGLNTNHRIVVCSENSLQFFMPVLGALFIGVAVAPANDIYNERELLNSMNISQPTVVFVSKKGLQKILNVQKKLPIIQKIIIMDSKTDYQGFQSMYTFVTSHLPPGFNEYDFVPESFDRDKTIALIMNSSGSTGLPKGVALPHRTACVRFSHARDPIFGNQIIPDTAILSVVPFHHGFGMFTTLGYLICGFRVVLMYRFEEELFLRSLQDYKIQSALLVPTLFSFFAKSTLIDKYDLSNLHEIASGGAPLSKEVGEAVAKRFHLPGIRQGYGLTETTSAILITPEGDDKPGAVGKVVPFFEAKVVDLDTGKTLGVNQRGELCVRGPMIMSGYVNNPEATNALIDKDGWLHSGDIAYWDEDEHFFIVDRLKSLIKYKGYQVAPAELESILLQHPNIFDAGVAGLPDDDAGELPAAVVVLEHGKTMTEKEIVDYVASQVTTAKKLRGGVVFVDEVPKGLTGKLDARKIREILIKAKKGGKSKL
UniProt P16473, sequence (P16473 whole entry, looked up): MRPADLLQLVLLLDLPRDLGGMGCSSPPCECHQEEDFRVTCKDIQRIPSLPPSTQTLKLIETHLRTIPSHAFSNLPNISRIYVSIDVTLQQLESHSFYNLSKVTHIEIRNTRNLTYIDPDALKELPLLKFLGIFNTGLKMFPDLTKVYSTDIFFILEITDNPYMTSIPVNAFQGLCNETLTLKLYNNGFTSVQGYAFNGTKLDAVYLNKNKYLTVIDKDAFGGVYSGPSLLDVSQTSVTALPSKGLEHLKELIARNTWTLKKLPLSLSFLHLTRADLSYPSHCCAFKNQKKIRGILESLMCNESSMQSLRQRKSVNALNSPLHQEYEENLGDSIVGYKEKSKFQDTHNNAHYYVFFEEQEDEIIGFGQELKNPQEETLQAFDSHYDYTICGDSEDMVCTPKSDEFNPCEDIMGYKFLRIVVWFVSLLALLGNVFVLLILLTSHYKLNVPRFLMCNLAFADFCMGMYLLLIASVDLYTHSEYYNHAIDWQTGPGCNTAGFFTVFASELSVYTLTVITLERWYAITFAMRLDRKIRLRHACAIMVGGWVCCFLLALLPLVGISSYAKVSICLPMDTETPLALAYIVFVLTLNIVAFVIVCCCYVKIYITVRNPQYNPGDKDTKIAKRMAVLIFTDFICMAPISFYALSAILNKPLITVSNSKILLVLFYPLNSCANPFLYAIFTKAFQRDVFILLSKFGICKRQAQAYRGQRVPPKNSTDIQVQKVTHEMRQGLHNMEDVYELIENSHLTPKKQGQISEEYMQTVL
UniProt Q14994, sequence (Q14994 whole entry, looked up): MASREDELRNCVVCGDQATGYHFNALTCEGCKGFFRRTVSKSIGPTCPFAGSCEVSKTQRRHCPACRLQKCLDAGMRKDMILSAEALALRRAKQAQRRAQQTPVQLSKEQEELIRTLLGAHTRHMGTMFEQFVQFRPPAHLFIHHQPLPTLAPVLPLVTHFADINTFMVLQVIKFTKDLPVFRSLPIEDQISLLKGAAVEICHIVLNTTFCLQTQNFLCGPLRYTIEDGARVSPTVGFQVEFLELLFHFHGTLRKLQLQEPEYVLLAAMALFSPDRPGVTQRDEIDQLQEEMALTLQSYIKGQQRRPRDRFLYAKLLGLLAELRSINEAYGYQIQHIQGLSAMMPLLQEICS

In the case of `CC(CCC(=O)O)C(=O)O` (stereo not given), the Potency [1] was inconclusive: 27.3 µM [rising, partial curve, poor fit].
In the case of `CC[C@H](C)COC(=O)/C=C/c1ccc(N=Cc2ccc(OC)cc2)cc1`, the Potency [1] was inconclusive: 68.5 µM [cytotoxic], the Potency [2] was active: 1.22 µM and the Potency [3] was inconclusive: 54.4 µM [cytotoxic, partial curve, poor fit].
In the case of `CCN(CC)CCOc1ccc(C(O)(Cc2ccc(Cl)cc2)c2ccc(C)cc2)cc1` (stereo not given), the Potency [1] was inconclusive: 33.5 µM [cytotoxic, single point], the Potency [4] was active: 26.6 µM and the Potency [2] was inconclusive: 29.8 µM [inhibitor]. For the same molecule, the Potency [3] was active: 33.5 µM, the Potency [5] was inconclusive: 33.5 µM [cytotoxic, single point] and the Potency [6] was inconclusive: 9.44 µM [activator, partial curve]. The Potency [7] was inconclusive: 29.8 µM [cytotoxic, partial curve], the Potency [8] was inconclusive: 11.9 µM [falling, partial curve] and the Potency [9] was inconclusive: 23.9 µM [cytotoxic, partial curve].
In the case of `Oc1cccc(-c2c3nc(c(-c4cccc(O)c4)c4ccc([nH]4)c(-c4cccc(O)c4)c4nc(c(-c5cccc(O)c5)c5ccc2[nH]5)CC4)C=C3)c1`, the Potency [1] was inconclusive: 29.8 µM [cytotoxic], the Potency [4] was inconclusive: 33.5 µM [inhibitor, single point] and the Potency [2] was inconclusive: 33.5 µM [inhibitor, single point]. For the same molecule, the Potency [10] was inconclusive: 27.5 µM [inhibitor, partial curve], the Potency [5] was active: 5.31 µM and the activation [11] was inconclusive: -32.9% [at 42.5 µM]. For the same molecule, the Potency [9] was “inactive”.
